Laboratory results from patent JP2014043405A.
Values belong to the binder of their own block, whether it stands above or below them.

How the values were obtained:
[1] = target: ヒトFcγRIIa (R) (human) (UniProt P12318); assay: SPR, KD; reference IL6R-G1d/IL6R-L
[2] = target: ヒトFcγRIIb (human) (UniProt P31994); assay: SPR, KD; reference IL6R-G1d/IL6R-L
[3] = target: ヒトFcγRIIb (human) (UniProt P31994); assay: SPR; KD for FcγRIIaR divided by KD for FcγRIIb
[4] = target: ヒトFcγRIIb (human) (UniProt P31994); assay: SPR; KD for FcγRIIaH divided by KD for FcγRIIb
[5] = target: ヒトFcγRIIa (R) (human) (UniProt P12318); assay: SPR, KD; reference IL6R-B3/IL6R-L
[6] = target: ヒトFcγRIIb (human) (UniProt P31994); assay: SPR, KD; reference IL6R-B3/IL6R-L
[7] = target: ヒトFcγRIIIa V型 (human) (UniProt P08637); assay: SPR, KD; reference IL6R-B3/IL6R-L
[8] = target: ヒトFcγRIIa (H) (human) (UniProt P12318); assay: SPR, KD; reference IL6R-B3/IL6R-L

UniProt P31994, sequence (P31994 43-217): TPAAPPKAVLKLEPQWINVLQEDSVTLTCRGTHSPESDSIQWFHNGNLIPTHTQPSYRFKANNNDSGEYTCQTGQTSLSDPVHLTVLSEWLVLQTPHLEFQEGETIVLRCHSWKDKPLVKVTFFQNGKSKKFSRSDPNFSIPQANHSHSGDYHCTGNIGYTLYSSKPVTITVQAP

fold weaker binding than IL6R-G1d/IL6R-L [1]: 2.2 fold | fold stronger binding than IL6R-G1d/IL6R-L [2]: 1.5 fold
B1: IL6R-G4d/IL6R-L (antibody, human IgG4 S228P)
heavy: QVQLQESGPGLVKPSETLSLTCAVSGHSISHDHAWSWVRQPPGEGLEWIGFISYSGITNYNPSLQGRVTISRDNSKNTLYLQMNSLRAEDTAVYYCARSLARTTAMDYWGEGTLVTVSSASTKGPSVFPLAPCSRSTSESTAALGCLVKDYFPEPVTVSWNSGALTSGVHTFPAVLQSSGLYSLSSVVTVPSSSLGTKTYTCNVDHKPSNTKVDKRV[human IgG4 Fc with S228P (EU numbers) not given here]
light: DIQMTQSPSSLSASVGDRVTITCRASQDISSYLNWYQQKPGKAPKLLIYYTSRLHSGVPSRFSGSGSGTDFTFTISSLQPEDIATYYCQQGNTLPYTFGQGTKVEIK

KD(IIaR)/KD(IIb) [3]: 0.3 | KD(IIaH)/KD(IIb) [4]: 0.2
B2: IL6R-B3/IL6R-L (antibody, human IgG1)
heavy: QVQLQESGPGLVKPSETLSLTCAVSGHSISHDHAWSWVRQPPGEGLEWIGFISYSGITNYNPSLQGRVTISRDNSKNTLYLQMNSLRAEDTAVYYCARSLARTTAMDYWGEGTLVTVSS[human IgG1 constant region with K439E (EU numbers) not given here]
light: B1 light

binding relative to IL6R-B3/IL6R-L (=1) [5]: 1.1 fold | binding relative to IL6R-B3/IL6R-L (=1) [6]: 1.2 fold | binding relative to IL6R-B3/IL6R-L (=1) [7]: 0.9 fold | binding relative to IL6R-B3/IL6R-L (=1) [8]: 1.1 fold
B3: IL6R-G1d/IL6R-L (antibody, human IgG1)
heavy: QVQLQESGPGLVKPSETLSLTCAVSGHSISHDHAWSWVRQPPGEGLEWIGFISYSGITNYNPSLQGRVTISRDNSKNTLYLQMNSLRAEDTAVYYCARSLARTTAMDYWGEGTLVTVSS[human IgG1 constant region not given here]
light: B1 light

fold improvement of binding activity against IL6R-B3 [6]: 2.6 fold
B4: IL6R-BF648/IL6R-L (antibody, human IgG1)
heavy: QVQLQESGPGLVKPSETLSLTCAVSGHSISHDHAWSWVRQPPGEGLEWIGFISYSGITNYNPSLQGRVTISRDNSKNTLYLQMNSLRAEDTAVYYCARSLARTTAMDYWGEGTLVTVSS[human IgG1 constant region with P238D K439E (EU numbers) not given here]
light: B1 light
